In PubChem BioAssay AID463173 (ICCB-Longwood Screening Facility, Harvard Medical School, 2010):
About 4,300 (8.3%) of roughly 52,000 compounds were called active. Rule as the data show it: active = survival mostly below about 52% (no sharp cut-off); inactive = mostly above about 56%. The list shows a part of the results.

What follows are compounds tested on DeltatarO mutant (assay: S. aureus survival, RN4220 and DeltatarO strains – OD600, teichoic acid synthesis inhibitors, primary screen (AID 463173)). Conditions: S. aureus RN4220 wild type/DeltatarO growth, OD600, 18 h, active compounds read low, screened at 18.75 µg/mL (by protocol).

Compound	survival
CCOC(=O)C1CCN(c2nc3c(S(=O)(=O)c4ccc(C)c(C)c4)nnn3c3ccc(Cl)cc23)CC1	inactive: 78%
CC1=C(C(=O)N2CCN(c3cccc(Cl)c3)CC2)C2(CCCCC2)OC1=O	inactive: 69%
COc1ccc(Cn2c(SCC(=O)N(C)Cc3ccccc3)nc3ccccc32)cc1	inactive: 88%
CC(C)(C)C1CCc2oc3ccc(NS(=O)(=O)c4ccc(C(=O)O)cc4)cc3c2C1 (centres undefined)	active: 16%
Cc1ccc(NC(=O)Cn2c(=O)nc(-c3ccccc3)c3ccccc32)cc1F	inactive: 95%
COc1ccc(CCNc2ncnc3c2cnn3-c2cc(Cl)ccc2C)cc1	inactive: 134%
CC1CCN(S(=O)(=O)c2ccc3c(ccc(=O)n3CC(=O)Nc3cccc(F)c3)c2)CC1	inactive: 117%
O=C(Nc1cnc(N2CCN(c3ccccc3)CC2)c(C(=O)O)c1)c1cccs1	inactive: 99%
CN1CCc2c(sc3c2C(=O)NC(c2ccc(C(C)(C)C)cc2)N3)C1 (centres undefined)	inactive: 48%
Cc1ccc(NC(=O)c2cc(S(=O)(=O)NCCc3ccc(Cl)cc3)ccc2F)cc1	inactive: 80%
CCOc1ccc(NC(=O)Cn2c(=O)n(CCCCCC(=O)NCc3ccccc3)c(=O)c3sccc32)cc1	inactive: 48%
Cn1c(C(=O)Nc2ccccc2)cc2sccc21	inactive: 63%
CCc1ccc2occ(CC(=O)Nc3c(C(=O)c4ccc(C)cc4)oc4ccccc34)c2c1	inactive: 78%
COc1ccc(S(=O)(=O)Nc2c(C)nc3nc[nH]n3c2=O)cc1	inactive: 130%
Cc1ccc2c(CNCc3ccc(C)o3)c(C(=O)O)n(Cc3ccccc3C)c2c1	inactive: 81%
Cc1ccc(C)c(N2CCN(S(=O)(=O)c3ccc4c(c3)C(C(C)C)C(=O)N4)CC2)c1 (centres undefined)	inactive: 82%
CSc1ncc(C(=O)NCc2ccccc2F)c(-c2ccccc2)n1	inactive: 112%
CCCc1ccc(OCC(=O)Nc2sc(C(=O)OCC)c(C)c2C(=O)OCC)cc1	inactive: 82%
CCc1ccccc1NS(=O)(=O)c1ccc2[nH]cc(C(=O)N(CC)Cc3ccccc3)c(=O)c2c1	inactive: 84%
COc1ccc(C2NC(=O)N(C)C3=C2C(=O)N(c2ccc(C(=O)O)cc2)C3)cc1 (centres undefined)	inactive: 72%
COc1ccc(OC)c(C2CC(=O)Nc3c2c(=O)[nH]c2ncnn32)c1 (centres undefined)	inactive: 68%
CCc1ccc(C2CC(=O)c3c([nH]c(C(=O)OC4CCCC4)c3C)C2)cc1 (centres undefined)	inactive: 97%
COc1cccc(-c2nc(CS(=O)(=O)CC(=O)N3CCN(c4cc(C)ccc4C)CC3)c(C)o2)c1	inactive: 104%

Compound	survival
CC1CCN(CC(=O)Nc2ccc(S(=O)(=O)N3CCCCC3)cc2)CC1	inactive: 100%
CCOC(=O)c1ccc(CN(Cc2ccc(F)cc2)S(=O)(=O)c2ccc(F)c(C(=O)Nc3c(C)cccc3C)c2)cc1	inactive: 93%
COc1ccc2c(c1)cc1c(=O)n(CC(=O)NC(C)CCc3ccccc3)nc(C)n12 (centres undefined)	inactive: 119%
O=S(=O)(NCCc1csc2nc(-c3ccccc3)nn12)c1cc(F)ccc1F	inactive: 76%
Cc1ccc(-n2ncc3c(Nc4cccc(C(=O)O)c4)ncnc32)cc1	inactive: 81%
COC(=O)CSc1nc(C(C)(C)C)cc(C(F)(F)F)n1	inactive: 99%
CCCSCCCNC(=O)C1CCN(c2nc3ccccc3nc2C(F)(F)F)CC1	active: 0%
CCCCn1cnc2cc(NCc3ccccc3Cl)ccc21	active: -16%
COc1ccc(-c2[nH]c(-c3ccc(Cl)cc3)nc2SCC(=O)NCC2CCCO2)cc1 (centres undefined)	inactive: 59%
Cc1ccc(NC(=O)C(=O)NCC(c2cccnc2)N2CCN(Cc3ccccc3)CC2)cc1F (centres undefined)	inactive: 82%
Cc1cc(C)nc(N(C#N)Cc2ccccc2)n1	inactive: 100%
Cc1cc(S(=O)(=O)C(CNC(=O)c2ccc(F)c(F)c2)c2cccs2)ccc1F (centres undefined)	inactive: 81%
Cc1ccc(S(=O)(=O)n2nc(-c3ccc(Cl)cc3)nc2NCc2ccc(F)cc2)cc1	inactive: 75%
CC(=O)N1CCCc2cc(S(=O)(=O)N3CCCC(C(=O)N4CCN(c5ccccc5)CC4)C3)ccc21 (centres undefined)	inactive: 94%
Cc1cc(C)c2c(CC(=O)Nc3ccc(S(=O)(=O)Nc4nc(C)cc(C)n4)cc3)coc2c1	inactive: 69%
COc1ccc(CNC(=O)c2cc3cc(OC)ccc3oc2=O)cc1	inactive: 51%
CCC(=O)N1CCc2cc(Br)cc(S(=O)(=O)CCC(=O)N3CCN(c4cccc(C)c4)C(C)C3)c21 (centres undefined)	inactive: 65%
CCc1ccc(S(=O)(=O)Nc2ccc3c(c2)n(C)c(=O)c(=O)n3C)cc1	inactive: 79%
COc1ccc(C(=O)Nc2ccc3nc(SCC(=O)N4CCc5ccccc54)sc3c2)cc1	inactive: 49%
COc1ccc(NC(=O)CCNS(=O)(=O)c2ccc3c(c2)CCCC(=O)N3)cc1Cl	inactive: 118%
O=C(Cc1cccs1)NC1CC(=O)N(c2ccc(F)cc2)C1 (centres undefined)	inactive: 99%
Cc1oc(-c2ccc(C(=O)NCc3ccccc3)cc2)nc1CN1CCc2ccccc21	inactive: 85%
CC(Sc1ccccn1)C(=O)Nc1ccccc1 (centres undefined)	inactive: 97%

Compound	survival
COc1ccc(-c2csc3ncnc(Nc4cccc(OC)c4)c23)cc1	inactive: 69%
CC(C)(C)NC(=O)c1c(N)no[n+]1[O-]	inactive: 92%
CSc1cccc(NC(=O)Nc2ccccc2OCc2cc(=O)n3cc(C)ccc3n2)c1	inactive: 102%
CCOCCCNC(=O)c1ccc(-n2c(-c3ccccc3)cc3c2CCC(C)C3)cc1 (centres undefined)	inactive: 105%
COc1ccc(OCc2ccc(-c3nc(C#N)c(NC(C)c4ccccc4)o3)o2)cc1 (centres undefined)	inactive: 82%
CC1CCCN(S(=O)(=O)Cc2ccccc2)C1 (centres undefined)	inactive: 94%
Cc1nn(CC(=O)Nc2ccc(OC(F)(F)F)cc2)c(=O)c2c(C)n(-c3ccc(Cl)cc3)nc12	active: 25%
Cc1cccc(C)c1Nc1c(-c2ccccn2)nc2c(C)cccn12	inactive: 51%
CCOc1ccc2nc(N3CCCC(C(=O)NCCc4ccc(OCC)c(OCC)c4)C3)sc2c1 (centres undefined)	inactive: 52%
COc1ccc(CCNC(=O)c2nc(-c3ccc(Cl)cc3)n3c2CCCCC3)c(OC)c1	inactive: 94%
Cc1ccc2c(=O)cc(-c3cccc(F)c3)oc2c1	inactive: 98%
COC(=O)c1ccccc1NC(=O)C1=CC(c2cccs2)=NS(=O)(=O)N1C	inactive: 83%
COc1ccc(-n2nc3cc(C)c(NC(=O)c4ccc(-c5ccc(Cl)cc5)o4)cc3n2)cc1	inactive: 45%
Cc1cc(OCC(=O)Nc2cc(-c3nc4ncccc4o3)ccc2C)ccc1Cl	inactive: 50%
Oc1cccc(N=Cc2sc(=S)n(C3CCCCC3)c2O)c1	inactive: 84%
COc1ccc(C)cc1NC(=O)C1CCN(S(=O)(=O)c2cc(Br)cc3c2N(C(C)=O)CC3)CC1	inactive: 76%
CCOC(=O)N1CC=C2C(C#N)=C(N)C(C#N)(C#N)C(c3ccc(CC)cc3)C2C1 (centres undefined)	inactive: 88%
O=C(Cn1c(-c2ccccc2)noc1=O)Nc1cccc(Cl)c1Cl	inactive: 98%
COc1ccc(C)c2sc(N3CCN(C(=O)c4cccc(F)c4)CC3)nc12	inactive: 128%
CCOc1ccccc1NC(=O)N(Cc1ccc(C)o1)C1CCN(C(C)=O)CC1	inactive: 101%
Cc1ccc(-c2cc3ncc4c(n3n2)-c2cc(F)ccc2OC4)cc1	inactive: 108%
CCOC(=O)CNC(=O)N1CCCN(S(=O)(=O)c2ccc3c(ccn3CC)c2)CC1	inactive: 87%
CCc1nn2c(=O)cc(COC(=O)c3ccccc3)nc2s1	inactive: 86%

Compound	survival
Cc1ccc(-c2nnc(NC3CCCC3)s2)cc1	inactive: 76%
CCn1c(SCc2c(F)cccc2Cl)nc(=O)c2c(C(=O)OC)cc(C3CC3)nc21	inactive: 55%
O=C(c1ccccc1Br)N(Cc1ccco1)Cc1ccco1	active: 45%
O=C(CSc1nnc(-c2ccc(Cl)cc2)o1)c1ccc([N+](=O)[O-])cc1	inactive: 55%
CCN1C(C)=C(C)S/C1=C1\SC(=S)N(C2CCCCC2)C1=O	inactive: 86%
Cc1ccc(Nc2c(-c3ccc(C)s3)nc3ccccn23)cc1	active: 31%
Cc1cc(Cl)ccc1NC(=O)Cc1ccc(NC(=O)N2CCCCc3ccccc32)cc1	inactive: 87%
CCCCn1c(=O)n(-c2cc(OC)ccc2OC)c(=O)c2c3c(sc21)CN(C(C)=O)CC3	inactive: 108%
COc1ccc(-n2nc(C(=O)Nc3cc(C)ccn3)c3c4ccccc4n(C)c3c2=O)cc1	inactive: 95%
Cc1cc(Nc2cccc(Cl)c2)nc2ccc(NC(=O)c3cncc(Br)c3)cc12	inactive: 69%
O=C(CC1N=C2c3ccccc3N=C(SCc3ccccc3Cl)N2C1=O)NCCc1ccccc1 (centres undefined)	inactive: 80%
Cc1oc(-c2ccccc2Cl)nc1CS(=O)(=O)CC(=O)NCc1ccc(F)cc1	inactive: 72%
CCC(C(=O)NCc1ccccc1OC)n1nc(C)n2c(cc3occc32)c1=O (centres undefined)	inactive: 80%
CCOc1ccccc1NC(=O)CN(C)S(=O)(=O)c1ccc(C(=O)N2CCOCC2)s1	inactive: 96%
O=c1c(=O)n(-c2ccc(F)c(F)c2)ccn1Cc1ccc(F)cc1Cl	inactive: 88%
Nc1nnc(CCS(=O)(=O)c2cc(Cl)ccc2Cl)s1	inactive: 106%
COc1ccc(C)cc1NC(=O)C1CCCN(c2ncnc3onc(C)c23)C1 (centres undefined)	inactive: 76%
CCOC(=O)C1=C(CS(=O)(=O)c2ccc(F)c(C)c2)NC(=O)NC1c1ccccc1OC (centres undefined)	inactive: 81%
CCCc1nnc(NC(=O)c2nc(SCC)ncc2Cl)s1	inactive: 76%
CCc1nn(CC(=O)N2CCCCC2)c(=O)c2cc3occc3n12	inactive: 87%
